This is an account of results in a collection of fitness landscapes (doi:10.1016/j.celrep.2020.107928).

B1: Caulobacter ParB omega fusion; a variant is named by its letters at X, in order, B8GW30 (parent)
chain: MESVVVGEPGMSEGRRGLGRGLSALLGEVDAAPAQAPGEQLGGSREAPIEILQRNPDQPRRTFREEDLEDLSNSIREKGVLQPILVRPSPDTAGEYQIVAGERAWRAAQRAGLKTVPIMVRELDDLAVLEIGIIENVQRADLNVLEEALSYKVLMEKFERTQENIAQTIGKSXSHVANXMRLLXLPDEVQSYLVSGELTAXHARAIAAAADPVALAKQIIEGGLSVRETEALARKAPNLSAGKSKGGRPPRVKDTDTQALESDLSSVLGLDVSIDHRGSTGTLTITYATLEQLDDLCNRLTRGI

The full ranking holds about 81,000 sequences; the median of “one-hybrid fitness for binding parS DNA” is about -0.17, and the highest 2% start at about 0.51. The list shows a part of the results.

In the test the parent is B1. Nature of the test: one-hybrid fitness for binding parS DNA (scaled: cognate 1, non-cognate 0); higher = stronger binding. As to conditions: with parS DNA site. The method, boiled down: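 Values were rescaled so that cognate is 1 and non-cognate is 0. Each is a fitness, the log change in a variant's read ratio to wild type from Illumina reads of plasmids before and after selection, with three replicate libraries pooled and variants under 10 reads dropped. Selection of the Caulobacter ParB libraries, four specificity codons randomised, used E. coli USO with a HIS3 reporter, site 19 bp from the promoter, on M9-minus-histidine with 0.1 mM IPTG and 5 mM 3-AT for 48 hours at 37°C.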
Consider VCAG, for which the “one-hybrid fitness for binding parS DNA” value is at most 0.2.
The same measure for GQQA: at most 0.2; for QRFC: at most 0.2.
The same measure for PMCR: at most 0.2; for RSDQ: at most 0.2.
For QWKQ, the “one-hybrid fitness for binding parS DNA” value was at most 0.2.
On to QPGL, for which the “one-hybrid fitness for binding parS DNA” value was at most 0.2.
RRKK: the “one-hybrid fitness for binding parS DNA” value was at most 0.2.
Consider SWRQ, for which the “one-hybrid fitness for binding parS DNA” value is at most 0.2.
With LKKT, the “one-hybrid fitness for binding parS DNA” value was at most 0.2.
For SMHG, the “one-hybrid fitness for binding parS DNA” value is at most 0.2.
Take NHIP: the “one-hybrid fitness for binding parS DNA” value is at most 0.2.
As for YWAG, the “one-hybrid fitness for binding parS DNA” value is at most 0.2.
The same measure for NPCT: at most 0.2.
For the variant MLYR, the “one-hybrid fitness for binding parS DNA” value is at most 0.2.
The same measure for PVRN: at most 0.2; for HASG: at most 0.2.
Turning to GRHD, the “one-hybrid fitness for binding parS DNA” value was at most 0.2.
The same measure for YSEC: at most 0.2.
The same measure for ETRR: at most 0.2; for QLPW: at most 0.2; for HLWG: at most 0.2.
On to MAAL, for which the “one-hybrid fitness for binding parS DNA” value is at most 0.2.
Take QRAT: the “one-hybrid fitness for binding parS DNA” value is at most 0.2.
The same measure for LKHE: at most 0.2; for LLSA: at most 0.2; for AGKQ: at most 0.2.
The same measure for PPFC: at most 0.2; for HCMV: at most 0.2.
On to TGIN, for which the “one-hybrid fitness for binding parS DNA” value is at most 0.2.
With MSQC, the “one-hybrid fitness for binding parS DNA” value was at most 0.2.
The same measure for IPYV: at most 0.2.
The same measure for VCHQ: at most 0.2.
Regarding SKQR, the “one-hybrid fitness for binding parS DNA” value is at most 0.2.
The same measure for VQQL: at most 0.2; for HKFW: at most 0.2; for TLAW: at most 0.2.
The same measure for SATC: at most 0.2; for HARN: at most 0.2; for RCLH: 0.258.
As for WNMG, the “one-hybrid fitness for binding parS DNA” value is at most 0.2.
Regarding SDNY, the “one-hybrid fitness for binding parS DNA” value is at most 0.2.
Consider KAGI, for which the “one-hybrid fitness for binding parS DNA” value is at most 0.2.
Turning to DEAG, the “one-hybrid fitness for binding parS DNA” value is at most 0.2.
The same measure for QVHK: at most 0.2; for SANR: at most 0.2.
As for AFLD, the “one-hybrid fitness for binding parS DNA” value was at most 0.2.
TLCV: the “one-hybrid fitness for binding parS DNA” value was at most 0.2.
The same measure for SQKT: at most 0.2.
The same measure for EFER: at most 0.2; for ATAS: at most 0.2.
The same measure for YTRA: at most 0.2; for LHPC: at most 0.2; for RIKV: at most 0.2.
Regarding TSRA, the “one-hybrid fitness for binding parS DNA” value was at most 0.2.
The same measure for KQEG: at most 0.2; for YCSD: at most 0.2.
The same measure for RVDH: at most 0.2; for QSDC: at most 0.2; for WTSA: at most 0.2.
Turning to RLDE, the “one-hybrid fitness for binding parS DNA” value is at most 0.2.
The same measure for WIIS: at most 0.2; for WYWG: at most 0.2; for PYIR: at most 0.2.
The same measure for LRER: at most 0.2; for HPNV: at most 0.2.
The same measure for YMTD: at most 0.2; for RHWE: at most 0.2.
Take RFQV: the “one-hybrid fitness for binding parS DNA” value is at most 0.2.
The same measure for TNYA: at most 0.2.
Consider VDPR, for which the “one-hybrid fitness for binding parS DNA” value is at most 0.2.
LDGR: the “one-hybrid fitness for binding parS DNA” value is at most 0.2.
The same measure for NNDF: at most 0.2; for TLSW: at most 0.2; for LSQG: at most 0.2.
With NANS, the “one-hybrid fitness for binding parS DNA” value is at most 0.2.
